This note sets out measurements from PubChem BioAssay AID485344 (National Center for Advancing Translational Sciences (NCATS), 2010).

In general, inhibition refers to the drop in the measured response relative to a control, in per cent.

The structures appear in SMILES notation. Screen size: about 340,000 compounds; about 6,900 (2%) were called active. This is a selection; strong and weak results do not stand in their true shares. Where no call is shown, the source filed none.

In the test the target is D(2) dopamine receptor (Homo sapiens) (UniProt P14416). In words: HTS Assay for Allosteric Antagonists of the Human D2 Dopamine Receptor: Primary Screen for Antagonists. Note: 0% is about no effect. As to conditions: HEK293 TREx D2 cells, calcium flux, dopamine EC80; at 10 µM; stronger effect = higher value. In a few lines: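 Cells plated overnight at 30 C with tetracycline; no-wash calcium dye, 30–90 min RT; 10 s baseline; compound pinned; 180 s read; EC80 dopamine added; another 180 s read.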
Sequence of UniProt P14416 (P14416 whole entry, looked up): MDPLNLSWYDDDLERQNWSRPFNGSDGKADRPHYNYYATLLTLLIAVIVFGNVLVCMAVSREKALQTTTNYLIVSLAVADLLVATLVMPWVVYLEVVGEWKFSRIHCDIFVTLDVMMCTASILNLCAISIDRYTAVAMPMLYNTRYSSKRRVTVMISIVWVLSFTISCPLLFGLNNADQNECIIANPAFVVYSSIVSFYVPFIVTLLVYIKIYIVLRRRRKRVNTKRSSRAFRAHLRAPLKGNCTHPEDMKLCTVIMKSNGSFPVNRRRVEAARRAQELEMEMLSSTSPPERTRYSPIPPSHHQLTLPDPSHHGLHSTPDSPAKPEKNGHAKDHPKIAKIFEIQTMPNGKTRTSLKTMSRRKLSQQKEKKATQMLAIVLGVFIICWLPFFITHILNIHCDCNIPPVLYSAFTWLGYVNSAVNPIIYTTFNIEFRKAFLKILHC
A general note: A change in cytosolic calcium serves as a functional read-out for many receptors and channels.
`CCN(c1ccccc1)c1ncnc2c1cnn2-c1ccc(OC)cc1`: the inhibition is 5.25%.

As to `Cc1ccc2[nH]c3c(=O)n(CC(=O)N4CCN(c5ccccc5F)CC4)ncc3c2c1`, the inhibition is -9.77%.

`O=S(=O)(NCCc1nnc2ccc(SCc3cccc(Cl)c3)nn12)c1ccccc1`: the inhibition was found to be 1.36%.

For `Cc1cc(N2CCN(C)CC2)nc2ccc(NC(=O)Nc3ccc(F)cc3)cc12`, the inhibition is -5.46%.

As to `CC(=O)N1CCCc2cc(S(=O)(=O)N3CCCC(C(=O)Nc4ccc(F)cc4F)C3)ccc21` (configuration not stated), the inhibition came to 20.9%.

For `COc1ccc(Cn2c(CNC(=O)Cc3ccc(OC)c(OC)c3)nc3cccnc32)cc1`, the inhibition was -8.05%.

For `Brc1ccc(-c2cn3cc(Cc4ccccc4)sc3n2)cc1`, the inhibition was found to be 6.53%.

Regarding `CC1CCN(S(=O)(=O)c2ccc3[nH]ccc3c2)CC1`, the inhibition was determined as 7.72%.

For the molecule `CCOC(=O)c1ccc(NC(=O)c2noc3c2CCCC3)cc1`, the inhibition is 6.46%.

Regarding `CCOc1ccc(-c2cc3nc(C4CCN(C(=O)OC(C)(C)C)CC4)c(C(=O)Nc4cccc(Cl)c4C)cn3n2)cc1`, the inhibition was 3.72%.

`O=C1NC(NS(=O)(=O)c2ccccc2)(C(F)(F)F)C(=O)N1CCc1ccccc1` (configuration not stated): the inhibition came to 1.99%.

For `Cn1cc(CCCC(=O)NCc2ccc(F)cc2)c2ccccc21`, the inhibition was 5.31%.

Turning to `CC(C)c1ccc(NC(=O)Cn2nnc(C(=O)NCCc3ccccc3)c2N)cc1`, the inhibition worked out at 5.71%.

With `COc1cc(Cl)c(NC(=O)CN2C(=O)c3cccnc3Sc3ccccc32)c(OC)c1`, the inhibition is -1.66%.

`COc1ccc(NC(=O)C(Cc2ccccc2)NS(=O)(=O)c2ccc3c(c2)oc(=O)n3C)c(OC)c1` (configuration not stated): the inhibition amounted to 18.5%.

Take `Cc1cccc2nc(-c3ccc(Cl)s3)c(Nc3ccc4c(c3)OCCO4)n12`: the inhibition is -3.92%.

As for `Cc1nc(N2CCOCC2)c2c(C(=O)N3CCN(c4cccc(C(F)(F)F)c4)CC3)c(C)oc2n1`, the inhibition was 6.05%.

With `Cc1nc2ccc(S(=O)(=O)NCC(=O)NCc3ccc(Cl)cc3)cc2s1`, the inhibition amounted to 7.24%.

In the case of `COc1ccccc1N1CCN(c2ncc3c(n2)CCN(Cc2ccccc2C)C3)CC1`, the inhibition came to 11.5%.

For `Cc1ccc(OCC(=O)OCc2cc(=O)n3ccsc3n2)cc1C`, the inhibition is 4.5%.

With `CCOc1ccc(NC(=O)Cn2c(=O)nc(-c3ccccc3)c3ccccc32)cc1`, the inhibition was -28.1%.

As to `Cc1ccc(C)c(NC(=O)CSc2cn(CC(=O)N3CCCCC3)c3ccccc23)c1`, the inhibition came to 0.189%.

Regarding `COc1ccc(OC(=O)c2cc(-c3ccc4c(c3)OCCO4)on2)cc1`, the inhibition was -19.7%.

Take `Cc1ccc2c(CNCCc3ccco3)c(C(=O)O)n(Cc3ccc(F)cc3)c2c1`: the inhibition came to 6.58%.

As to `CCOc1ccc(CN(CCc2ccc3c(c2)OCO3)Cc2cc(OC)cc(OC)c2)cc1`, the inhibition amounted to 19.1%.

As for `COc1ccc(NC(=O)CCCc2nnc3n(C(C)C)c(=O)c4sccc4n23)cc1Cl`, the inhibition was determined as 1.14%.

For `Cc1cc(=O)[nH]c2nnc(SCc3cccc(C(F)(F)F)c3)n12`, the inhibition was determined as 15.7%.
